3 molecules from PubChem BioAssay AID623962 (The Scripps Research Institute Molecular Screening Center, 2012) can be followed below.

The source holds more than one record for some entries. The other results are left out here.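 How the source made its calls: active means mean inhibition at 10 µM of 50% or more; inactive means mean inhibition at 10 µM below 50%.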 An entry can have further records. Values given together are repeats across runs, samples, wells, individuals or studies. Records carry a tag for their origin. Letters hold for one entry only.

For the test, the system named is Huh-7.5 HCV Rluc replicon, luciferase luminescence, 72 h. The experiment in a line: HCV RNA replication inhibitors in Huh-7.5 cells – cell-based, luminescence, Renilla luciferase replicon, orthogonal assay for HCV NS3 helicase inhibitor project, late-stage follow-up (AID 623962). The following applies: at 10 µM; stronger effect = higher value. An outline of the steps: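 Assay system: Huh-7.5 HCV Renilla luciferase replicon cells | Compound: One concentration, 10 µM in 0.5% DMSO | Times: 4-5 h attachment, 72 h compound exposure at 37 °C | Detection: Renilla luciferase luminescence from cell lysate after freeze/thaw lysis | Evaluation: % replication inhibition versus DMSO-treated cells | Controls: DMSO-only wells as reference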
Background: A replicon is a self-replicating genome or part of one, used to study replication in cells.
For the molecule `Cc1ccc2nc(-c3ccc4nc(-c5ccc(NC(=O)c6ccc7ccccc7c6)cc5)sc4c3)sc2c1S(=O)(=O)O`, the inhibition (in general, the drop in the measured response relative to a control, in per cent) is 61% [sample A] and inactive: 21% [sample B].

In the case of `Cc1ccc2nc(-c3ccc4nc(-c5ccc(N)cc5)sc4c3)sc2c1S(=O)(=O)O`, the inhibition entry was “inactive: 9% [sample A] and 55% [sample B] and inactive: 12% [sample C]”.

In the case of `NS(=O)(=O)c1ccc2nc(NC(=O)c3ccc4ncsc4c3)sc2c1`, the inhibition was 54% [sample A] and inactive: -9% [sample B].
